{"source": "paper PMC12136788", "binders": {"B1": {"name": "29589776_29605605_832_3pUTR_ENSMUSG00000038084_ENSMUST00000160597|mouse|control|control (ssRNA)", "RNA": "GGGAGUUCUACAGUCCGACGAUCUACUUUAACUGAGUAUGCAGAAGUUCUUCUUGAAGUUGGUCAAUCUUUUCUUUGUCUGACACCUUCCUGUAAUGCUUGUCACUUUCAGAUCCAUGAUCUGUUGCUCGAAAUGCUGUUUCUCAACAGAGGAUUGAGCAUCA"}, "B2": {"name": "chr16:47005550:47005551:-_ENSG00000069345_ENST00000563158|hu_hu|FALSE|FALSE (ssRNA)", "RNA": "GGGAGUUCUACAGUCCGACGAUCUAAAGAAAAGGUAAAAAUAAAAAUAAUUGCAUUUUCAAGUAGAAGAGUGGGGAGAAGCUACAGGAAUCCAGAAUCCAUUUAAUUUUUGUCUCCUGCAUUUGGAUUCUUAUCAGGAUGAUACAACAGAGGAUUGAGCAUCA"}, "B3": {"name": "205779317_205779437_1207_CDS_ENSG00000133065_ENST00000367137|human|control|control (ssRNA)", "RNA": "GGGAGUUCUACAGUCCGACGAUCGCCACGGUCUGUGCUGACGUCGUCACUUUCGUUGCUCUGGCUCCCGUUCUCCAGCAGGGCGUCCUCCUCCCGAACCCCCUUGGCGUUGGCCCGAGACUCAAUCACCACCUCUACCCCAGCCAACAGAGGAUUGAGCAUCA"}, "B4": {"name": "chr20:43533646:43533647:+_ENSG00000166913_ENST00000353703|hu_hu|FALSE|FALSE (ssRNA)", "RNA": "GGGAGUUCUACAGUCCGACGAUCGAAAUUUAGUGCCAGACCAAGACGAAUUGGGUGUGUAGGCUGCAUUUCUUUCUUACUAAUUUCAAAUGCUUCCUGGUAAGCCUGCUGGGAGUUCGACACAGUGGUUUGUUUGUUGUCUCCCAACAGAGGAUUGAGCAUCA"}, "B5": {"name": "chr2:216981417:216981418:+_ENSG00000079246_ENST00000392132|hu_hu|hu_hu_hu_mus_True|48_68 (ssRNA)", "RNA": "GGGAGUUCUACAGUCCGACGAUCCUGAUACUGGUCCUUGCCAGCAAGGGCAUUAUCAGUGCCAUCUGUACCAAACAGGACUAACGCAAUCUCAUCCUUGCUCUCCGAAAAUACCUGUCGUUGGACAAACAUAGUCAUCACUUUCAACAGAGGAUUGAGCAUCA"}, "B6": {"name": "chr16:21666878:21666879:+_ENSG00000197006_ENST00000396014|hu_mus|FALSE|FALSE (ssRNA)", "RNA": "GGGAGUUCUACAGUCCGACGAUCUUUAAAAACACUCCCUUACACACUACAAAGAAAGAAUUAGUAUUUUGGCUUUUUAAAUUCCUACAUGAUACUGAGAAUGACAGUCCCCAGAGGUCCCCCUCACAUCACUGGAUGCAUCUCCAACAGAGGAUUGAGCAUCA"}, "B7": {"name": "chr6:86475052:86475053:-_ENSMUSG00000051695_ENSMUST00000053015|mus_mus|FALSE|FALSE (ssRNA)", "RNA": "GGGAGUUCUACAGUCCGACGAUCCUCAUUGAUGUUGGCGCCUUGGCGCCCGAUUAUGCAGCCGAUUAAGUUAUUUGGAAUGGUGAGUUCAUGGGUGGUUUGAGUAGAUGCAUCCAAACUUGCCCAAUAGCCUUUCACCUCUGGCAACAGAGGAUUGAGCAUCA"}, "B8": {"name": "chr1:163112212:163112213:-_ENSG00000143248_ENST00000313961|hu_hu|hu_hu_hu_mus_False|38_38 (ssRNA)", "RNA": "GGGAGUUCUACAGUCCGACGAUCUUUUAUUAUCAGUAAGAGUGAGUUACAUACUAGGCAAAGUAUUGGAUACAAUAAUCAGGAAACAAACACUAUUUUUCUUGAAUUUAAAACUUUAUGAGCGAAGUGCUGGCACAGGACUUACAACAGAGGAUUGAGCAUCA"}, "B9": {"name": "chr14:78183846:78183847:+_ENSG00000119705_ENST00000557342|hu_hu|hu_hu_hu_mus_False|38_98 (ssRNA)", "RNA": "GGGAGUUCUACAGUCCGACGAUCUCUCAGAAAUCUUUCUUUCUUUUAUGUUUGAGCUCCGUGCAAAGCCUUUGCUCUUUGAGCUUGAACGUGGAUCUUUACUCCAUAAAGCACUGUCAGAAAAGGUAAUUUUUUUUUUAAAGACAACAGAGGAUUGAGCAUCA"}, "B10": {"name": "chr10:80924034:80924035:-_ENSMUSG00000034818_ENSMUST00000118763|mus_mus|motif|central (ssRNA)", "RNA": "GGGAGUUCUACAGUCCGACGAUCUUAAAACUGGAACUAUGGCAGCCAUCCGGGGGUUUCUACCUGAUUCGUGGGUUUCCGGAUCGAAGCCAAAAUAGAUAAAGCCCAAAAGACCCAGAUAAUGGACAAAAAACACUGAAGGAUCAACAGAGGAUUGAGCAUCA"}, "B11": {"name": "chr6:11883424:11883425:+_ENSMUSG00000029629_ENSMUST00000115511|mus_hu|FALSE|FALSE (ssRNA)", "RNA": "GGGAGUUCUACAGUCCGACGAUCCUUUUUCUUUCUAGGUCUUUCUCCAUUUUCUUCUUCUUCCUUCUUUUCCAUUUUAAUUAAUUGUUUUUCUGAUGAUAGUACUUCUUCCUCUGCAGAAUUUUUAAGUUGUUCUUCUUUUACCAACAGAGGAUUGAGCAUCA"}, "B12": {"name": "51939381_51939501_5263_3pUTR_ENSMUSG00000020349_ENSMUST00000020608|mouse|control|control (ssRNA)", "RNA": "GGGAGUUCUACAGUCCGACGAUCCCUUCAAUCCCAGCACUCGGGAGGCAGAGACAGGCGGAUUUCUGAGUUUGAGGCCAGCCUGGUCUACAAAGUGAGCUCCAGGACAGCCAGGGCUAUACAGAGAAACCCUGUCUCAAAAAACAACAGAGGAUUGAGCAUCA"}, "B13": {"name": "chrX:50293416:50293417:+_ENSMUSG00000025626_ENSMUST00000078944|mus_mus|motif|central (ssRNA)", "RNA": "GGGAGUUCUACAGUCCGACGAUCUUUCUUCUUAGUCUUUGGAGAUGAGGGCUCCAGUUCAUGCUCAUUAAAACUUUCUUCGGAAUCAGCUUCCGAGUUAUGUGCAGUUUUCUUGUGUUUUCGACAAUAAACCAUGUAAAUCCCCAACAGAGGAUUGAGCAUCA"}, "B14": {"name": "chr14:39627603:39627604:-_ENSG00000182400_ENST00000330149|hu_mus|FALSE|FALSE (ssRNA)", "RNA": "GGGAGUUCUACAGUCCGACGAUCGAACUUCAUGAUGUCUAAUUCAUCCUUGAACCUUGCAGUAUCUUUCGUAAACCUUUCUAUCAGUCCUUGCCCCACUCGGAACCCCAUGCUCUCCAGCUUAGUAACACACCUUCCAUUUUCCAACAGAGGAUUGAGCAUCA"}, "B15": {"name": "chr17:76047126:76047127:+_ENSG00000078687_ENST00000588847|hu_hu|FALSE|FALSE (ssRNA)", "RNA": "GGGAGUUCUACAGUCCGACGAUCUGUCUGUUUCACAGAAGCAGCUCCUCCCCAGUUACUCACAUUGUUGUCUUGGGGUUUGCUAGCCCAGUUCUGUUGGGGGCCAGGUUUUAAAGUCUCCCCCCAGUUUGUACCUGGAUUGGCCAACAGAGGAUUGAGCAUCA"}, "B16": {"name": "chr1:173068877:173068878:-_ENSMUSG00000058076_ENSMUST00000081560|mus_hu|FALSE|FALSE (ssRNA)", "RNA": "GGGAGUUCUACAGUCCGACGAUCGUUCCCAGGGAGUAACAGGGCCGACAUGCCAAAAAGAGAGACCCCUGCACUCAAAGCAAUACCAGUGCCACGGUGGCAGAUGGACAUCGCCAUGGGAAGAGACCAACUGUAGAUAGUAAUCAACAGAGGAUUGAGCAUCA"}, "B17": {"name": "chr7:141441981:141441982:+_ENSG00000106028_ENST00000265304|hu_mus|hu_hu_hu_mus_False|78_78 (ssRNA)", "RNA": "GGGAGUUCUACAGUCCGACGAUCCUCAUGUCUUACAAACUGACGAAAUACCUGUAAUACAGGUCUUCGAAACAUGGCUUCUGUUUUUCUUACAACCUAAUCUUUAGGCUUUUCCUAAAGGAAAGAAAGAAAAGAGAAAAAUGACAACAGAGGAUUGAGCAUCA"}, "B18": {"name": "chr16:20935853:20935854:+_ENSG00000102897_ENST00000219168|hu_hu|motif|central (ssRNA)", "RNA": "GGGAGUUCUACAGUCCGACGAUCAAGGGUCAAAAGACAACAAAAAAGCACACACCAAAAAACCUCACUUUAAGCAAAUCGGUAACUUGAAAAAAAAAAAGCCUAAGAAUAUUCUGAGAGUGGUACAUAGUUUUAUAGUAGCCACAACAGAGGAUUGAGCAUCA"}, "B19": {"name": "chr16:94651144:94651145:+_ENSMUSG00000040785_ENSMUST00000117648|mus_hu|mus_mus_mus_hu_True|48_58 (ssRNA)", "RNA": "GGGAGUUCUACAGUCCGACGAUCAUUUUCUUGAAUCAAGUGGCGAAUAACAUAGUCCACUGCUUCAUUUAGAAAAUUUUUGCUAGAAAAGCAUGUUGUAUAGUCUUCUGUGCUCAAAACUUUCCAAGAAAGCAAUUCUUUGAGCAACAGAGGAUUGAGCAUCA"}, "B20": {"name": "chr2:114393739:114393740:-_ENSMUSG00000057147_ENSMUST00000102542|mus_mus|motif|central (ssRNA)", "RNA": "GGGAGUUCUACAGUCCGACGAUCAUUAGAAGCUAUCAUCUCUCGGAGCAAAUCUUCCUGGUUUCUUUGCCAAAGAUAAGCGGAAGGCUGGAGAUUGAGUCGUUUACAUACAUUUUCUACUCGUCCACGUUGAUAGUCAGAGAGCAACAGAGGAUUGAGCAUCA"}, "B21": {"name": "chr19:16212804:16212805:+_ENSG00000167460_ENST00000300933|hu_mus|hu_hu_hu_mus_False|38_38 (ssRNA)", "RNA": "GGGAGUUCUACAGUCCGACGAUCAACAAUUCUGGAGUGAAGGAAAGAUGUAACAUGGAACAGCAUUAAAGCUCAGUCAGAAGGCACAUGGGCAACAAUGACUAUUUCAGCAUUCUCGCUUGGAAUGCUUAAAGACAAUCUGUUCAACAGAGGAUUGAGCAUCA"}, "B22": {"name": "chr8:117878989:117878990:-_ENSG00000164754_ENST00000297338|hu_hu|hu_hu_hu_mus_True|28_108 (ssRNA)", "RNA": "GGGAGUUCUACAGUCCGACGAUCCCAGAGGCCCUCUUUUACUGAGGACAAAAUGUGCGUAGAACAUUUUUCUUAUUUGCUAUGAAAUAAGAAGAAACCUGGAUCUCCCGCUGGGAGCGGGAGGGGUGGGUGGCCCGGGGAGGGCAACAGAGGAUUGAGCAUCA"}}, "note": "The other results are listed elsewhere or left out."}
{"molecular_target": "T1, UNK ZnF1-3 (human, UniProt Q9C0B0 31-174)", "T1 sequence": "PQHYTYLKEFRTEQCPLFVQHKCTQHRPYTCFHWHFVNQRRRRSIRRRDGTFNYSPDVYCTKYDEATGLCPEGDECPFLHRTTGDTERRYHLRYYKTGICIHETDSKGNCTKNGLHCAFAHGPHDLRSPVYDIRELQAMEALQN", "experiment": "nsRBNS (natural sequence RNA bind-n-seq); RBNS binding buffer (assumed for nsRBNS): 25 mM Tris pH 7.5, 150 mM KCl, 3 mM MgCl2, 0.01% Triton X-100, 500 ug/ml BSA, 20 U/ml SUPERase-In, 4 C; UNK is unkempt and MSI1 is Musashi-1; names of the RNAs are library labels; protein concentration not given here; high values mean tight binding", "units": {"binding signal": "enrichment R"}}
{"binder": "B1", "binding signal": 0.319}
{"binder": "B2", "binding signal": 1.41}
{"binder": "B3", "binding signal": 0.879}
{"binder": "B4", "binding signal": 0.754}
{"binder": "B5", "binding signal": 0.701}
{"binder": "B6", "binding signal": 1.25}
{"binder": "B7", "binding signal": 0.361}
{"binder": "B8", "binding signal": 1.51}
{"binder": "B9", "binding signal": 0.785}
{"binder": "B10", "binding signal": 1.58}
{"binder": "B11", "binding signal": 0.28}
{"binder": "B12", "binding signal": 0.757}
{"binder": "B13", "binding signal": 0.543}
{"binder": "B14", "binding signal": 0.804}
{"binder": "B15", "binding signal": 0.974}
{"binder": "B16", "binding signal": 1.02}
{"binder": "B17", "binding signal": 0.639}
{"binder": "B18", "binding signal": 2.63}
{"binder": "B19", "binding signal": 0.396}
{"binder": "B20", "binding signal": 0.968}
{"binder": "B21", "binding signal": 1.16}
{"binder": "B22", "binding signal": 1.22}
